The source of these data is paper PMC7819943, “Rice protein-binding microarrays: a tool to detect cis-acting elements near promoter regions in rice”.

This is one part of the list.

For this assay, the target named is T1, OsWOX13 (Oryza sativa, UniProt Q5QMM3 1-267).
T1 sequence: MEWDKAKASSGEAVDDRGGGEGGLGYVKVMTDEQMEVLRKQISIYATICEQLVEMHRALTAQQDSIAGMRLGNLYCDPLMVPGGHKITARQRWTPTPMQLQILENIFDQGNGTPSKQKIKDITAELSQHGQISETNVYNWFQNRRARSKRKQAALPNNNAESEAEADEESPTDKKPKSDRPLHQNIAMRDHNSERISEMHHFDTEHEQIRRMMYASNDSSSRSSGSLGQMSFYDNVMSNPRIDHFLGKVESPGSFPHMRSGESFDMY
The experiment in a line: protein-binding microarray (RPBM); PBS, 2% BSA, 51.3 ng/ul salmon testes DNA, 50 uM zinc acetate, 200 nM TF, 25 C, 1 h; high values mean tight binding. To be noted: protein: recombinant; tags: N-terminal polyhistidine and DsRed monomer fusion (pET32a); label: CyDye5-dUTP incorporated in the synthesized complementary strand; 3' TTTTT single-stranded linker to array surface; dsDNA, one strand shown. In outline: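 An Axon 4000B scanner gave the binding signal as per-feature fluorescence intensity in arbitrary units. This followed washing of a custom Agilent array that had been incubated for 1 h at 25 °C with 200 nM protein in PBS, 2% BSA, salmon testes DNA and 50 µM zinc acetate. The proteins were transcription factors fused at the N-terminus to polyhistidine and DsRed, expressed in E. coli BL21-CodonPlus and purified on Ni–NTA.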
Regarding “GTTATTAGATTGTATAGTAAGAGTTTATTATTTAGCGACTCGGAGTCACCTAGTGCAG”, the binding signal is 4340 fluorescence intensity (a.u.).

Consider “ATTCAAGATTTAACAATCACCAATTTTATTCTAAATAACACGGAGTCACCTAGTGCAG”, for which the binding signal is 6120 fluorescence intensity (a.u.). Take “GTTTTCAAATCTAGATTGAAAGTTTTCAAATCCGGGTTAACGGAGTCACCTAGTGCAG”: the binding signal is 18600 fluorescence intensity (a.u.). Turning to “CATATTATCCTAATTGATGTTATTACTAGTATTTCTTAATCGGAGTCACCTAGTGCAG”, the binding signal was 13600 fluorescence intensity (a.u.). With “TGTTAACTGGAGCGGAATTAATACAATTGCCATTTGTCTTCGGAGTCACCTAGTGCAG”, the binding signal is 19900 fluorescence intensity (a.u.). The value for “GAATGTGTGATTATCAGCATAGCCGAGATCAATTTCGAGGCGGAGTCACCTAGTGCAG” was 5340 fluorescence intensity (a.u.). Regarding “GGTGAATCATGAAATCAAGCAAATTAAATCATTGTATAATCGGAGTCACCTAGTGCAG”, the binding signal is 3560 fluorescence intensity (a.u.). Turning to “ATGACACATGCCGTTGATTGGTTGACACAGATCGGATTCGCGGAGTCACCTAGTGCAG”, the binding signal was 46900 fluorescence intensity (a.u.). Next, “AACTAAAATTACACCTTAATTACAATATACTTCACATAGCCGGAGTCACCTAGTGCAG”: 15000 fluorescence intensity (a.u.); “AATTAGCTGATTTGCAAATGATTTCCACCGTGGTGTGACACGGAGTCACCTAGTGCAG”: 35700 fluorescence intensity (a.u.). Turning to “GTAGTAATTGGTTTAACATTACTGTGCGAAATTTCAGTTGCGGAGTCACCTAGTGCAG”, the binding signal was 38900 fluorescence intensity (a.u.). For the sequence “CTTGTGTTTCAATTAAGAATACCGACAGCTGACGTGCCAGCGGAGTCACCTAGTGCAG”, the binding signal is 6550 fluorescence intensity (a.u.). The value for “CCTTTGATTTTCATGTGCTAGATGGAGAACTGATAGTGGTCGGAGTCACCTAGTGCAG” was 19700 fluorescence intensity (a.u.). Next, “CAAAATCAATCAATCAATCCAGCCCTGCCCTCCTTTCGGTCGGAGTCACCTAGTGCAG”: 57900 fluorescence intensity (a.u.); “AATAATTCTAATTTCTTTTAAATAAGATGAATGATCAAATCGGAGTCACCTAGTGCAG”: 3820 fluorescence intensity (a.u.); “TTAGATGACACGAGAGATGATAATTGTTATCTAGCTGTTCCGGAGTCACCTAGTGCAG”: 5630 fluorescence intensity (a.u.). In the case of “ATTAAATCTATAATTTTGTGATACTTAAGTTTTAAACCTCCGGAGTCACCTAGTGCAG”, the binding signal was 9610 fluorescence intensity (a.u.).

“GGATAATGCCATTTATAAATTTTCAGGAGCTAATGGTCCACGGAGTCACCTAGTGCAG”: the binding signal is 4520 fluorescence intensity (a.u.). Regarding “TATACTATTTCAATTTATCTAGTAAATCTCACACTAACTACGGAGTCACCTAGTGCAG”, the binding signal was 3580 fluorescence intensity (a.u.). “AATTAATCACACGTTATTACCACCCCATTTTGTGTGAAACCGGAGTCACCTAGTGCAG”: the binding signal is 12600 fluorescence intensity (a.u.). In the case of “CTGCAAATCAACTTCACAGCACATTCCCCATCCACCAACTCGGAGTCACCTAGTGCAG”, the binding signal was 3740 fluorescence intensity (a.u.).

In the case of “GTGATAGACTTGGTTCGATTGACAATTGAAGTCTGAATGGCGGAGTCACCTAGTGCAG”, the binding signal is 26000 fluorescence intensity (a.u.). As to “ATTGTGGTCTAATTACCTAGACATCGAGCATGTGAAAACTCGGAGTCACCTAGTGCAG”, the binding signal is 4310 fluorescence intensity (a.u.). On to “CAGACAGAGGATTACCAAGATTGGCTGTATGAAATACGTACGGAGTCACCTAGTGCAG”, for which the binding signal is 4540 fluorescence intensity (a.u.). Next, “CCCAAGGAATAATTAATTATTTGCTAATCTTATGAGTGGTCGGAGTCACCTAGTGCAG”: 26200 fluorescence intensity (a.u.); “AATTATTTATTCAAATCATGATCCGATTGTACCATTAAATCGGAGTCACCTAGTGCAG”: 4030 fluorescence intensity (a.u.). The value for “GCATACTAATGACTAATGAGAAACCAACAGGTCATTTCGTCGGAGTCACCTAGTGCAG” was 3300 fluorescence intensity (a.u.). Turning to “GTGACCGCCAATCATGAGCTCAACACTCTCTATTCCCTTCCGGAGTCACCTAGTGCAG”, the binding signal is 17300 fluorescence intensity (a.u.).

For the sequence “TTTGCATACGTGGCGGGCTGATTGGACCGTATTTACCACTCGGAGTCACCTAGTGCAG”, the binding signal was 3410 fluorescence intensity (a.u.).

“AATAAATTGTCTAAGTTATTGCATTAGAACGAGCGCACCCCGGAGTCACCTAGTGCAG”: the binding signal is 17500 fluorescence intensity (a.u.). Next, “GCCCATTAATTTCTCGTCGTCTCCCTTTTCTCAAACAGTACGGAGTCACCTAGTGCAG”: 14100 fluorescence intensity (a.u.); “GACCTAACATTGATTGAATATATCTATAATAATATTGTTACGGAGTCACCTAGTGCAG”: 40800 fluorescence intensity (a.u.); “GTTGAATGTTTTGTATGATTTGAACCTGAAAACTGCATGACGGAGTCACCTAGTGCAG”: 7380 fluorescence intensity (a.u.). “TGTTCCCAATCATTCTCACCATATCGAGCTATGAAAAGAGCGGAGTCACCTAGTGCAG”: the binding signal was 3920 fluorescence intensity (a.u.). Next, “GTGATTGGCGCGATCCGTGCGCTTGCCGTCTTGCCGGCGTCGGAGTCACCTAGTGCAG”: 30100 fluorescence intensity (a.u.); “ATAACTAAGATTATATTAATTTGCCGTGTATAATACTTCCCGGAGTCACCTAGTGCAG”: 12700 fluorescence intensity (a.u.); “ATGAAAATTAAAGCACATCAATGGTGGGGATTAAAAGTGGCGGAGTCACCTAGTGCAG”: 3600 fluorescence intensity (a.u.). The value for “GCTGATGGGTATGACACGAGAGCAGCCAAAATCCGGCCGGCGGAGTCACCTAGTGCAG” was 8780 fluorescence intensity (a.u.); that for “TATCTGATTGACAACTTCATCTTTTCGCTTATACTTATGCCGGAGTCACCTAGTGCAG” was 42600 fluorescence intensity (a.u.). Next, “AACCATTGATTTTCCTGAGTTTCTCAATCTGATGGCTCGCCGGAGTCACCTAGTGCAG”: 7920 fluorescence intensity (a.u.); “CAGTCAACTGACAGTTTGATCAGTCATCTCTATCCCTTGACGGAGTCACCTAGTGCAG”: 5460 fluorescence intensity (a.u.). As for “TAAATTACTAGTTAACTTAGTTATATCTTCATTTGATCCTCGGAGTCACCTAGTGCAG”, the binding signal was 5640 fluorescence intensity (a.u.).
